From ChEMBL document CHEMBL4888484, “Replenishing the malaria drug discovery pipeline: Screening and hit evaluation of the MMV Hit Generation Library 1 (HGL1) against asexual blood stage Plasmodium falciparum ,using a nano luciferase reporter read-out” (2022)
Out of some 4,800 compounds screened, about 410 (8.5%) showed an effect of 50% or more. Some of the results follow.

These molecules were tested on Plasmodium falciparum (assay: Confirmatory screen in NF54 pLDH assay, in single point, at 2uM, 72h). Settings: timepoint 72 hour.
Format: functional, Erythrocyte

SMILES | % Inhibition
COc1ccc(Nc2nc(C(C(F)(F)F)(C(F)(F)F)C(F)(F)F)nc(C(C(F)(F)F)(C(F)(F)F)C(F)(F)F)n2)cc1 | 11%
Cc1oc(C)c(C(=O)N2CCc3cnccc32)c1C | -13%
COc1cccc(Oc2nc(N3CCN(C)CC3)nc3c2CN(C(=O)Nc2ccccc2)CC3)c1 | 10%
Cc1ncoc1C(=O)N1CC(F)(F)C[C@H]1Cn1cc(C(=O)N2CCOCC2)nn1 | 4%
CCOCC(=O)Nc1ccc(C(C)=O)c(Cl)c1 | -7%
Cc1c(S(=O)(=O)N2CC3CN(c4ccccc4)CC3C2)cnn1C (stereo not given) | 10%
O=C(Nc1cccc2cccnc12)N1CCOCC1CC(O)c1cccs1 (stereo not given) | 10%
Cc1sc(NC(=O)c2ccccc2Cl)nc1-c1ccc2c(c1)NC(=O)[C@H](C)O2 | 12%
COC(=O)c1cc(Cl)c(Cl)cc1N | 1%
O=C1CCc2cc(NC(=O)[C@@H]3Cc4ccccc4C(=O)O3)ccc2N1 | 14%
COc1cccc2c1OCC(=O)N([C@@H](C)c1ccccc1)C2 | -12%
O=C(Cc1cccs1)Nc1ncc(Cc2ccccc2)s1 | 7%
CC1(C)c2ccccc2CCN1C(=O)CCc1ncc(-c2ccccc2)o1 | 8%
COc1cc2c(cc1OC)CN(C(=O)c1cccc(N3C(=O)C(C)(C)CS3(=O)=O)c1)CC2 | 3%
Cc1c(C)n(CCc2c[nH]c3ccccc23)ccc1=O | 11%
O=C(Cc1ccc(N(Cc2cccc(F)c2)C(=O)C2CCCC2)cc1)NCCN1CCCCC1 | 43%
O=C(NCCN1CCCCC1)[C@H]1CCCN(c2nc3cccnc3n(Cc3ccccc3)c2=O)C1 | -4%
Clc1ccc(COc2ccc(Cl)cc2CNCCCn2ccnc2)c(Cl)c1 | 100%
Cc1ccccc1CNC(=O)c1ccccc1NC(=O)C1CC=CCC1C(=O)O (stereo not given) | 7%
COCCN(CC1CN(Cc2ccccn2)CC1c1cccc(F)c1)C(=O)COC (stereo not given) | -5%
Cn1ccnc1[C@@H]1CCCN1Cc1nccn1Cc1ccccc1 | 43%
CCNC(=O)C[C@H]1CCCCN1C(=O)C1CCN(Cc2csc(C)n2)CC1 | 14%

SMILES | % Inhibition
COc1ccc(CCNC(=O)c2c(C)noc2-c2ccncc2)cc1OC | 9%
CCC(C)(C)N(C)C(=O)c1ccccc1Cl | -1%
O=C1CCCC1C(c1ccccc1)N(C1=NS(=O)(=O)c2ccccc21)c1ccccc1 (stereo not given) | -19%
Cc1cc2occ(CC(=O)N[C@@H](Cc3c[nH]c4cc(F)ccc34)C(=O)O)c2cc1C | 7%
c1csc(CNC2CCCCCCC2)c1 | -2%
CC1(C)Oc2ccc(NC(=O)c3ccco3)cc2NC1=O | 12%
CCN1CC[C@H](NCc2ccc(OCCN3CCOCC3)c(Cl)c2)C1=O | 6%
CCN(CC)C(=O)N1CCC[C@@H]1CCc1ncc(C)n1C(C)C | 12%
COc1ccc2cc3n(c2c1)C[C@@](C)(C(=O)NC1CCCC1)N(Cc1ccc(F)cc1)C3=O | 13%
C[C@H]1CNCCN1C(=O)c1coc2ccccc12 | 8%
c1ccc(-c2nnc3nc(N4CCOCC4)nc(N4CCOCC4)n23)cc1 | 6%
N#Cc1cc(O)c(-c2c(O)n[nH]c2-c2ccccc2)cc1C#N | 10%
COc1ccccc1N(Cc1ccccc1)C1=NC(=[N+](Cc2ccccc2)c2ccccc2OC)c2ccccc21 | 67%
Cc1cc(C)c(S(=O)(=O)Cc2ccccc2)c(O)n1 | 12%
O=C(Nc1nn(Cc2ccccc2)cc1Cl)c1cc(-c2ccc(OC(F)F)cc2)[nH]n1 | -12%
COc1ccccc1NC(=O)c1cnn2c3c(cnc12)CCCCC3 | 3%
O=C(Cc1nnc2ccc(C(=O)Nc3ccccc3)cn12)Nc1ccc(F)cc1 | 8%
O=C(NCc1ccccn1)[C@H]1CN(S(=O)(=O)c2cccnc2)CC12CCCCC2 | 15%
COC(=O)[C@H](NC(=O)CN1CCOc2ccc(Cl)cc21)c1ccc(O)cc1 | 7%
Cc1cc(C)cc(CON=C(N)CCO)c1 | -17%
CCN1C(=O)C(=O)N(CN2CCc3ccccc3C2)C1=O | 7%
Cc1cc(CN2C(=O)N[C@@]3(CCCCc4ccccc43)C2=O)no1 | 6%

SMILES | % Inhibition
CN1CCN(c2c(F)cc3c(=O)c(C(=O)O)cn(-c4ccc(OC5CC6CCC5(C)C6(C)C)c(F)c4)c3c2F)CC1 (stereo not given) | -4%
O=C(c1ccc(O)cc1)C1CCN(C[C@H](O)C(F)(F)F)CC1 | 9%
Cc1nn(C)c(Cl)c1CNCc1ccc(N2CCCCC2)nc1 | -13%
COCCCNC(=O)C(=O)Nc1ccnn1C1CCCCC1 | 7%
CN=C(NCC(=O)N(C)CC(F)(F)F)NCc1ccc(C)cc1 | 11%
Cc1cc(N)cc(Br)c1N | -12%
COc1ccc(C(NC(=O)NCC2CCCO2)C(Cl)(Cl)Cl)cc1F (stereo not given) | -1%
COc1cccc(CNCCN2CCOCC2)c1OCc1ccc(Cl)cc1Cl | 11%
CC(C)CC1NC2(C(=O)N(Cc3ccccc3F)c3ccccc32)C2C(=O)N(c3cccc(Cl)c3)C(=O)C12 (stereo not given) | -2%
NC(=O)c1c(Cl)cccc1NCc1noc(Cc2ccccc2)n1 | -11%
O=C(CCOCC(F)(F)F)Nc1ccc2c(c1)C(=O)NC2 | -5%
C[C@H](Nc1cccc2c1CCO2)c1cccnc1 | 19%
Cc1nn(C(C)(C)C)c2nc(C3CC3)cc(C(=O)N(C)c3ccccc3)c12 | 87%
COc1cccc(C(=O)N2CCN(c3cc(N4CCOCC4)nc(C)n3)CC2)c1 | 4%
Cn1cc(CNC(=O)NCC2(Cc3ccccc3)CCC2)cn1 | -3%
N[C@H]1COc2ccc(Br)cc2C1=O | -9%
COc1ccc(-c2nccn3cc(C(=O)NCCc4ccncc4)nc23)cc1 | 5%
CC(C)N(C)CCOC(=O)c1ccccc1Cl | 11%
CC1CCC2C(CCC(C)N2C(=O)c2cc3nc4c(c(C(F)(F)F)n3n2)CCc2ccccc2-4)C1 (stereo not given) | 1%
CS(=O)(=O)Nc1ccc(OC(=O)C2C3CCCCC32)cc1 (stereo not given) | 11%
CC1(C)C(NCC(O)COc2ccc(F)c(F)c2)[C@@H]2CCC[C@@H]21 (stereo not given in full) | 75%
